The campaign covered roughly 310,000 compounds. About 2,200 (0.71%) showed an effect of 50% or more. Effects have a minus sign here. The list shows a part of the results.

In the assay the target is human ether-à-go-go-related gene (hERG) potassium channel (human, UniProt Q12809). Nature of the assay: primary screen, population patch clamp on CHO cells stably expressing hERG.
Sequence of human ether-à-go-go-related gene (hERG) potassium channel (Q12809 whole entry, looked up): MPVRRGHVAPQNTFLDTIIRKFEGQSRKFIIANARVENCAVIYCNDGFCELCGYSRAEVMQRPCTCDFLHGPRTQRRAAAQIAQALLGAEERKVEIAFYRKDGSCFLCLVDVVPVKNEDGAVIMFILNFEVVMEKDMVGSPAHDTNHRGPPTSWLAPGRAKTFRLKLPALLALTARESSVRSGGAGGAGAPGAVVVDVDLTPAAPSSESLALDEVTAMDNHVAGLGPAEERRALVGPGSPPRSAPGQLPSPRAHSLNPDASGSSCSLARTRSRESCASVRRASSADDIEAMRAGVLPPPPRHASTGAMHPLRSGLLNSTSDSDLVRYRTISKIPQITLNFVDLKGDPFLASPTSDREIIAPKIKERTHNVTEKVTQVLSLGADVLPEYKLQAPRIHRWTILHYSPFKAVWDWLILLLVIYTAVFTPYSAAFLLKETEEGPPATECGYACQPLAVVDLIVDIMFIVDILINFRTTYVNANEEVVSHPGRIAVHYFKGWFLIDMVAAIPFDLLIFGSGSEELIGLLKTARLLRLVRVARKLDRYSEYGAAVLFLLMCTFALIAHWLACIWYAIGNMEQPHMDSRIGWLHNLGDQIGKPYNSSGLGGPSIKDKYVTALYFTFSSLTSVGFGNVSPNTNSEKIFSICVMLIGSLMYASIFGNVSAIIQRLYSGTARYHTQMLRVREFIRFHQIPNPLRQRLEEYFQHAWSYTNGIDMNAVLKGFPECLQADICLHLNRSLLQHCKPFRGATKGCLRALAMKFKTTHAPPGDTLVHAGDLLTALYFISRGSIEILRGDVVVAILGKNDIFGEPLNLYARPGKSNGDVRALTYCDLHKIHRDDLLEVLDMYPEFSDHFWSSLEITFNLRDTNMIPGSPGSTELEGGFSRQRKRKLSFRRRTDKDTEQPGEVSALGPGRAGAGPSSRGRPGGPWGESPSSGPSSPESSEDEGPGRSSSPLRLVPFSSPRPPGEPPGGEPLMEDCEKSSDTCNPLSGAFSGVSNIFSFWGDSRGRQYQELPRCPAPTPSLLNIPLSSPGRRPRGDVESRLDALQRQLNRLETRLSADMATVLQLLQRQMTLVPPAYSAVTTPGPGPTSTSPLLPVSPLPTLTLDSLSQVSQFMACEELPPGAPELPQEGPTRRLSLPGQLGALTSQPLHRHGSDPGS
On to `O=C(NC1CCCC1)C1CC(c2ccc(F)cc2)=NO1` (stereo not drawn), for which the “hERG current change (%, negative = inhibition) at 1uM” value is reported as 0.226%.

Consider `Cc1cc(C(=O)N/N=C/c2ccccn2)c2ccccc2n1`, for which the “hERG current change (%, negative = inhibition) at 1uM” value amounted to 16%. Take `Cn1c(O)c(C(=O)c2ccccc2)c(=O)n(C)c1=O`: the “hERG current change (%, negative = inhibition) at 1uM” value was 8.22%. Turning to `COc1cccc(NCCC(=O)c2cccc([N+](=O)[O-])c2)c1`, the “hERG current change (%, negative = inhibition) at 1uM” value is listed as 10.6%. Consider `CNC(=O)/C(C#N)=C/c1ccc(-c2ccc(OC)cc2[N+](=O)[O-])o1`, for which the “hERG current change (%, negative = inhibition) at 1uM” value amounted to 5.38%. Turning to `COc1ccc(C(=O)/C=C/Nc2ccc(S(=O)(=O)Nc3onc(C)c3C)cc2)cc1`, the “hERG current change (%, negative = inhibition) at 1uM” value was found to be 14.9%. Next, `CCOC(=O)C1CCN(C(=O)CCC(=O)NNc2nc3ccccc3c3nc(C)nn23)CC1`: 18.9%; `Cc1ccc(N2CC(C(=O)Nc3cccnc3)CC2=O)cc1Cl` (stereo not drawn): 13.3%; `COC(=O)c1[nH]nc2c1C(=O)N(C1CCCCC1)C2=O`: 7.96%. For the compound `COc1ccc(NC(=O)Nc2cc(C)ccc2OC)cc1`, the “hERG current change (%, negative = inhibition) at 1uM” value is given as -5.18%. `Fc1ccc(-c2nnn(Cc3nc4ccccc4s3)n2)cc1`: the “hERG current change (%, negative = inhibition) at 1uM” value is listed as 0.965%. For `Cc1c(Br)c(C(F)(F)F)nn1CC(=O)NCCN1CCOCC1`, the “hERG current change (%, negative = inhibition) at 1uM” value was found to be 6.02%. Take `CN=C(Nc1ccccc1)SC1CC(=O)N(c2cccc(OC)c2)C1=O` (stereo not drawn): the “hERG current change (%, negative = inhibition) at 1uM” value is listed as 9.59%.

For `COc1ccc(N2C(=O)CC(NNC(=O)c3ccco3)C2=O)cc1` (stereo not drawn), the “hERG current change (%, negative = inhibition) at 1uM” value is recorded as -1.86%. Turning to `CN(C)c1ccc(P(=O)(OCc2ccccc2)C(O)c2ccccc2)cc1` (stereo not drawn), the “hERG current change (%, negative = inhibition) at 1uM” value worked out at 11.5%. Take `O=C(Nc1ccccc1NC(=O)c1ccccc1F)c1ccccc1F`: the “hERG current change (%, negative = inhibition) at 1uM” value is recorded as 14.7%. Next, `Clc1ccc(-c2c[nH]c3ccccc23)nn1`: 12.9%. On to `Cc1ccc(NC(=O)CCN2CCC(C)CC2)cc1.Cl`, for which the “hERG current change (%, negative = inhibition) at 1uM” value was 18.3%. Regarding `COc1ccccc1N=Nc1[nH]c2ccc(C)cc2c1O`, the “hERG current change (%, negative = inhibition) at 1uM” value was determined as 3.92%. The value for `COC(=O)c1sc(N2C(=O)C(O)=C(C(=O)c3ccc(C)o3)C2c2ccco2)nc1C` (stereo not drawn) was 4.2%; that for `O=P(Nc1cccnc1)(Oc1ccccc1Cl)Oc1ccccc1Cl` was 6.69%; that for `CC(=O)N=C1SC2CS(=O)(=O)CC2N1c1ccc(-c2nc3ccc(C)cc3s2)cc1` (stereo not drawn) was 9.01%. Next, `COc1cc(NC(=O)c2ccco2)c(C(=O)OCC(=O)Nc2ncc(Cl)cc2Cl)cc1OC`: 12.4%; `CCn1nc(NC(=O)c2ccncc2)c2cc3cccc(C)c3nc21`: 20.3%. Take `O=C(CSc1nnc(COc2ccccc2Cl)o1)NC(=O)NCc1ccco1`: the “hERG current change (%, negative = inhibition) at 1uM” value worked out at 13.9%. Next, `CCc1nn(-c2ccccc2)c(N)c1C#N`: 9.42%; `COc1cccc(C(=O)Nc2ccc(NC(=O)Cc3ccccc3)cc2)c1`: -5.63%.

Turning to `CCOC(=O)CSc1nc2c(c(=O)[nH]1)C(C)(CC)Cc1ccccc1-2` (stereo not drawn), the “hERG current change (%, negative = inhibition) at 1uM” value is on record as 11%. The value for `CCCc1cc(=O)[nH]c(SCC(=O)Nc2cc3c(cc2C(C)=O)OCO3)n1` was 8.71%; that for `COc1ccc(C(=O)N(c2ccccc2)C2C=CS(=O)(=O)C2)cc1` (stereo not drawn) was 3.52%.

As for `COc1ccccc1NC(=O)c1cc(C)oc1C`, the “hERG current change (%, negative = inhibition) at 1uM” value is given as 1.5%. As for `CCOC(=O)C1CCN(S(=O)(=O)c2cc3c(cc2C)NC(=O)CO3)CC1`, the “hERG current change (%, negative = inhibition) at 1uM” value is recorded as -13.1%. `CCC(=O)NC(Nc1cc(C)cc(C)n1)(C(F)(F)F)C(F)(F)F`: the “hERG current change (%, negative = inhibition) at 1uM” value was determined as 17.6%. The value for `CCSc1nnc(NC(=O)c2cc(-c3ccccc3O)n[nH]2)s1` was 8.75%; that for `COC(=O)c1ccc(C)c(NC(=O)c2nn(C)c(=O)c3ccccc23)c1` was 9.77%; that for `CC1CCc2cc(F)ccc2N1C(=O)C1(C)CC1(Cl)Cl` (stereo not drawn) was 11.3%. `Cc1ccc(S(=O)(=O)N/N=C\c2ccc([N+](=O)[O-])o2)cc1`: the “hERG current change (%, negative = inhibition) at 1uM” value was -6.28%. The value for `Cc1cc(C)n2nc(SCC(=O)N/N=C/c3ccccc3F)nc2n1` was 9.71%; that for `CSCC(C)N1CCC(n2nccc2NC(=O)CCCc2ccccc2)CC1` (stereo not drawn) was -9.4%; that for `COc1cc(NC(=O)c2ccccc2NS(=O)(=O)c2ccc(Cl)s2)cc(OC)c1` was 13.1%. The value for `CC(C)c1nnc(NC(=O)CCC(=O)N2CCN(c3ccccn3)CC2)s1` was -2.2%; that for `O=C(O)CN=C1NC2(CCCC2)Cc2ccccc21` was 9.36%; that for `O=C(O)c1cccnc1-c1ncccc1C(=O)O` was 6.57%.

On to `CC(C)C[C@H](NC(=O)CCn1nnc2ccccc2c1=O)C(=O)O`, for which the “hERG current change (%, negative = inhibition) at 1uM” value turned out to be 6.95%. With `Nc1nc(Nc2cccc3ccccc23)nc(C2CCCC2=O)n1` (stereo not drawn), the “hERG current change (%, negative = inhibition) at 1uM” value is reported as 14.3%. Next, `CCCSc1nc2ccccc2n1CC(=O)O`: 20.7%. Next, `Cc1nn(CCC(=O)N2CCN(S(=O)(=O)c3ccccc3)CC2)c(C)c1C`: 14.5%; `CCCCS(=O)(=O)Nc1ccc(C)cn1`: 8.96%. As for `Cc1ccc2ncccc2c1[N+](=O)[O-]`, the “hERG current change (%, negative = inhibition) at 1uM” value came to 0.585%.

As to `CCN1C(=O)[C@H]2[C@@H](c3ccc(C)cc3)N3C(=O)N(c4ccc(OC)cc4)C(=O)[C@@]3(Cc3ccccc3)[C@H]2C1=O`, the “hERG current change (%, negative = inhibition) at 1uM” value was found to be 12.7%. In the case of `COc1cc(C(=O)Nc2cc(S(C)(=O)=O)ccc2Cl)ccc1OCC(=O)N1CCOCC1`, the “hERG current change (%, negative = inhibition) at 1uM” value is 5.03%.

For the compound `CCN(CC)CCNC(=O)c1ccc(NC(=O)c2c(C)nn(-c3ccc(F)cc3)c2Cl)cc1`, the “hERG current change (%, negative = inhibition) at 1uM” value was -40%. In the case of `CC(C)N1C(=O)CN(C2CCCCCC2)C(=O)C1c1ccccc1F` (stereo not drawn), the “hERG current change (%, negative = inhibition) at 1uM” value was 11.8%. Next, `CCOC(=O)Nc1ccc2c(c1)N(C(=O)CNC)c1ccccc1CC2.Cl`: 14.7%; `Cc1ccc(OCC(=O)N2CCc3ccccc3C2)c([N+](=O)[O-])n1`: 2.48%; `Cc1cc(C)c(S(=O)(=O)c2ccccc2C(=O)O)c(C)c1`: 10.6%. For the compound `CC(=O)SC1CC(=O)N(c2c(C)cccc2C)C1=O` (stereo not drawn), the “hERG current change (%, negative = inhibition) at 1uM” value is listed as 11.7%. The value for `COC(=O)c1cn(C(=O)c2ccc(Cl)cc2)c2ccccc12` was 12.5%; that for `Cc1cc(C)n2nc(C(=O)Nc3ccc(S(=O)(=O)N4CCCCC4)cc3)nc2n1` was 13.3%; that for `COc1ccc(-n2nc(C(=O)NCC(=O)N3CCCC3)c3ccccc3c2=O)c(OC)c1` was 14.8%. For `COc1ccc(Cl)cc1N1C(=NC(=O)C2CCCCC2)SC2CS(=O)(=O)CC21` (stereo not drawn), the “hERG current change (%, negative = inhibition) at 1uM” value amounted to 5.28%. With `CCn1nc(C(=O)Nc2cccc3ccccc23)c(Cl)c1Cl`, the “hERG current change (%, negative = inhibition) at 1uM” value was found to be 17.7%.

For `CC(Oc1ccc2oc3ccccc3c2c1)C(=O)NC12CC3CC(CC(C3)C1)C2` (stereo not drawn), the “hERG current change (%, negative = inhibition) at 1uM” value is reported as 20.4%. For `COc1cnc(-c2ccccn2)nc1Sc1cccc(Cl)c1`, the “hERG current change (%, negative = inhibition) at 1uM” value is listed as 16.3%.

Take `O=C(/C(=C/O)N=Nc1ccccc1)c1ccncc1`: the “hERG current change (%, negative = inhibition) at 1uM” value is reported as 9.05%.

Take `CCCCn1c(N)c(N(CCC(C)C)C(=O)c2ccc(C)c(S(=O)(=O)N3CCOCC3)c2)c(=O)[nH]c1=O`: the “hERG current change (%, negative = inhibition) at 1uM” value worked out at 5.89%.

Take `CC(=O)Nc1ccc(NC(=O)C2CC(=O)N=C(N)S2)cc1` (stereo not drawn): the “hERG current change (%, negative = inhibition) at 1uM” value was found to be 3.85%. The value for `COc1ccc(C2=NS(=O)(=O)N(C)C(C(=O)N3C(C)CCCC3C)=C2)cc1` (stereo not drawn) was 3.48%. The value for `CCCCC(=O)NC(=S)Nc1cccc(C(=O)O)c1` was 8.95%; that for `COc1ccc(N(CC(=O)NCc2ccccc2C)S(=O)(=O)c2ccc(C)cc2)cc1OC` was 7.29%; that for `O=C(CN1NS(=O)(=O)c2ccccc2C1=O)Nc1ccccc1OC(F)F` was -1.21%.

With `CCc1cc(C(c2cccc(OC)c2)N2CCOCC2)c(NC(=O)c2ccccc2)s1` (stereo not drawn), the “hERG current change (%, negative = inhibition) at 1uM” value is on record as 9.83%.

For `N#C/C(=C/c1ccc([N+](=O)[O-])cc1)C(N)=O`, the “hERG current change (%, negative = inhibition) at 1uM” value worked out at 10.4%. The value for `COc1ccc(OC/C(O)=C(\C#N)c2nc3ccccc3[nH]2)cc1` was -5.19%. Consider `CCCC[N+]12C3C[C@H](C4[C@H](O)[C@]5(C[C@@H]41)c1ccccc1N(C)[C@@H]35)[C@H](CC)[C@H]2O.[I-]` (stereo partly drawn), for which the “hERG current change (%, negative = inhibition) at 1uM” value is -24.9%. Next, `COc1ccc(C2C(C(C)=O)=C(O)C(=O)N2c2ccc(Br)cc2)cc1` (stereo not drawn): 13.5%; `CCCn1c2ccccc2c2cnn(CC(=O)N(CC)CC)c(=O)c21`: 8.76%. Next, `Cc1ccc(C2(c3noc(CN(C)Cc4cnn(C)c4)n3)CCCC2)cc1`: 11.8%; `CCCCC(=O)Nc1nc(C)c(-c2csc(Nc3cc(OC)ccc3OC)n2)s1`: 0.696%. Next, `CN(c1ccccc1C(=O)Nc1cccc([N+](=O)[O-])c1)S(=O)(=O)c1ccccc1`: -13.8%; `N#Cc1c(NC(=O)c2cnn3cccnc23)sc2c1CCCC2`: 7.93%. As to `CC(C)c1cc(C(=O)N2CCCC(N3CCN(c4ccc(F)cc4)CC3)C2)no1` (stereo not drawn), the “hERG current change (%, negative = inhibition) at 1uM” value is on record as -36.4%.

With `COCCCNC(=O)Nc1ccc(Br)cc1Cl`, the “hERG current change (%, negative = inhibition) at 1uM” value is 17.9%.

In the case of `CCOCCn1c(CN2CCN(C(c3ccccc3)c3ccccc3)CC2)nc2c1c(=O)n(C)c(=O)n2C`, the “hERG current change (%, negative = inhibition) at 1uM” value is given as 11.3%. Turning to `Cn1nc(C(=O)OCC(=O)Nc2sccc2C(N)=O)c2ccccc2c1=O`, the “hERG current change (%, negative = inhibition) at 1uM” value is listed as 9.92%. Next, `COc1ccc(N2C(=NC(=O)C3CCCCC3)SC3CS(=O)(=O)CC32)cc1Cl` (stereo not drawn): 9.12%; `O=C(NCC1CCCN(C(=O)c2cccnc2)C1)c1ccc(-c2ccccc2)cc1` (stereo not drawn): -4.76%.

The record behind these values is PMC4336329 (PLoS ONE, 2015).
